Laboratory results published in the supplement of paper PMC9433436.
± gives the standard deviation of the averaged measurements. In all, about 4,100 sequences were measured (“relative kcat/Km (krel) vs genomic leader AAAGAU”: median about 1.7, highest 2% from about 6.5 on). The entries are a selection whose mix differs from that of the whole data set.

Molecular target: T1, E. coli RNase P holoenzyme (M1 P RNA + rnpA protein) (UniProt P0A7Y8)
T1 sequence: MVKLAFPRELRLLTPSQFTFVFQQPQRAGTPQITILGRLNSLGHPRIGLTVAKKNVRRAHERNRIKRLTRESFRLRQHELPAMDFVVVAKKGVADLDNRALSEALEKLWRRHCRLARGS
Assay: relative kcat/Km (krel) vs genomic leader AAAGAU (relative (reference leader = 1)); higher = faster RNase P cleavage
Procedure, shortened: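 Under multiple-turnover conditions at 37 °C, a precursor tRNA-Met pool randomized at leader positions −6 to −1 was processed by E. coli RNase P holoenzyme (P RNA plus C5 protein) in 50 mM Tris-HCl pH 8, 100 mM NaCl, 17.5 mM MgCl2. The remaining precursor was gel-purified at ~5–30% conversion, then converted to cDNA libraries and Illumina-sequenced. Relative kcat/Km (krel) came from read ratios by internal competition kinetics, normalised to the genomic leader, with two technical replicates averaged.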

[1] = fraction of substrate reacted: ~9-10% (9.79% repeat 1, 9.1% repeat 2)
[2] = fraction of substrate reacted: ~13-16% (15.68% repeat 1, 13.17% repeat 2)
[3] = fraction of substrate reacted: ~26-29% (28.66% repeat 1, 26.4% repeat 2)

Sequence	relative kcat/Km [1]	relative kcat/Km [2]	relative kcat/Km [3]
CTTGTT	1.35 ± 0.26	1.04 ± 0.14	1.23 ± 0.9
TGCCTT	1.96 ± 0.64	2.66 ± 0.59	3.59 ± 1.3
CAATGG		0.462 ± 0.11	0.702 ± 0.35
TCGCGG	1.27 ± 0.89		0.735 ± 0.24
ATCTCT	3.47 ± 1.2	4.36 ± 0.18	6.18 ± 2.7
TCCGGT			2.26 ± 0.87
TCCCAT	4.48 ± 2.4	5.74 ± 1	
TTCATG	2 ± 2	2.08 ± 0.48	4.3 ± 1.5
GGCATC	1.73 ± 0.36	2.09 ± 0.48	2.42 ± 0.71
GAGGTA	0.0777 ± 0.05		
ATGATG			0.888 ± 0.43
TGACGA	2.18 ± 0.17	3.63 ± 0.68	4.71 ± 2
TGCAAC	1.87 ± 0.58	1.45 ± 0.22	2.22 ± 0.84
CGATGA	2.79 ± 1.8	3.53 ± 0.96	4.87 ± 1.1
GTTCCG		0.359 ± 0.011	1.45 ± 0.11
TTATAC	4.34 ± 1.3	5.2 ± 0.6	
ATTCTA	2.57 ± 2.1	2.17 ± 0.23	2.44 ± 0.73
TGGCCA	1.16 ± 0.33	0.745 ± 0.48	0.607 ± 0.14
AGATCT	2.62 ± 0.94	3.06 ± 0.29	3.7 ± 1.1
AGCGCG			0.992 ± 0.79
TTACCG			0.935 ± 0.42
CCCGGT			1.83 ± 1.5
ATCGAC	3.59 ± 0.99	4.75 ± 0.93	6.92 ± 2
ACACGT	0.923 ± 0.34		
GATCCG		0.5 ± 0.42	0.972 ± 0.15
GATCCT	1 ± 0.31	2.073 ± 0.0024	2.32 ± 0.89
CGACGT		2.25 ± 1.1	2.36 ± 1.5
GATATT	1.6 ± 0.053	1.73 ± 0.22	3.18 ± 1.4
CCTACT	1.32 ± 0.44		1.47 ± 0.11
GGCATA	2.07 ± 0.64	1.92 ± 0.11	2.28 ± 1
